# Laboratory results taken from the supplement of paper PMC8728848.
# Some of the results follow.
# Key:
# Assay in all cases: glycan array binding signal (z-score within array); higher = stronger binding
# Settings in all cases: glycan notation: IUPAC condensed, linker removed
# [1] = target: GalNAc(a1-3)GalNAc(a1-3)Gal(a1-4)Gal(b1-4)GlcNAc
# Procedure, shortened: (§1)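 Arrays were curated from the Consortium for Functional Glycomics database, 3228 in total, and kept only where the protein sequence was available. Binding is expressed as a within-array Z-score. This score was averaged across arrays of the same protein sequence at different concentrations or buffers and across linkers, and negative values can be read as non-binding.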
# [2] = target: GalNAc(a1-3)GalNAc(b1-3)Gal(a1-4)Gal(b1-4)Glc
# Procedure, shortened: as §1
# GalNAc(b1-3)Gal = target: GalNAc(b1-3)Gal
# Procedure, shortened: as §1
# [3] = target: GalNAc(b1-3)Gal(a1-4)Gal(b1-4)GlcNAc
# Procedure, shortened: as §1
# [4] = target: GalNAc(b1-3)Gal(a1-4)Gal(b1-4)GlcNAc(b1-3)Gal(b1-4)Glc
# Procedure, shortened: as §1
# [5] = target: GalNAc(b1-3)Gal(a1-6)Gal(b1-4)Glc
# Procedure, shortened: as §1
# GalNAc(b1-3)GalNAc = target: GalNAc(b1-3)GalNAc
# Procedure, shortened: as §1
# GalNAc(b1-4)GlcNAc = target: GalNAc(b1-4)GlcNAc
# Procedure, shortened: as §1
# [6] = target: GalNAc(b1-4)GlcNAc(b1-2)Man(a1-3)[GalNAc(b1-4)GlcNAc(b1-2)Man(a1-6)]Man(b1-4)GlcNAc(b1-4)GlcNAc
# Procedure, shortened: as §1
# GalNAc(b1-6)GalNAc = target: GalNAc(b1-6)GalNAc
# Procedure, shortened: as §1
# Glc(a1-4)Glc = target: Glc(a1-4)Glc
# Procedure, shortened: as §1
# Glc(a1-6)Glc(a1-6)Glc = target: Glc(a1-6)Glc(a1-6)Glc
# Procedure, shortened: as §1
# Glc(b1-4)Glc = target: Glc(b1-4)Glc
# Procedure, shortened: as §1
# Glc(b1-6)Glc = target: Glc(b1-6)Glc
# Procedure, shortened: as §1
# GlcA(b1-3)Gal = target: GlcA(b1-3)Gal
# Procedure, shortened: as §1
# GlcA(b1-3)GlcNAc = target: GlcA(b1-3)GlcNAc
# Procedure, shortened: as §1
# GlcA(b1-6)Gal = target: GlcA(b1-6)Gal
# Procedure, shortened: as §1
# [7] = target: GlcNAc(a1-3)Gal(b1-4)GlcNAc
# Procedure, shortened: as §1
# [8] = target: GlcNAc(a1-4)Gal(b1-3)GlcNAc
# Procedure, shortened: as §1
# [9] = target: GlcNAc(a1-4)Gal(b1-4)GalNAc
# Procedure, shortened: as §1
# [10] = target: GlcNAc(a1-4)Gal(b1-4)GlcNAc
# Procedure, shortened: as §1
# [11] = target: GlcNAc(a1-4)Gal(b1-4)GlcNAc(b1-3)Gal(b1-4)Glc
# Procedure, shortened: as §1
# [12] = target: GlcNAc(a1-4)Gal(b1-4)GlcNAc(b1-3)Gal(b1-4)GlcNAc
# Procedure, shortened: as §1
# [13] = target: GlcNAc(a1-4)Gal(b1-4)GlcNAc(b1-3)Gal(b1-4)GlcNAc(b1-3)Gal(b1-4)GlcNAc
# Procedure, shortened: as §1
# [14] = target: GlcNAc(a1-4)Gal(b1-4)GlcNAc(b1-3)Gal(b1-4)[Fuc(a1-3)]GlcNAc(b1-3)Gal(b1-4)[Fuc(a1-3)]GlcNAc
# Procedure, shortened: as §1
# [15] = target: GlcNAc(a1-6)Gal(b1-4)GlcNAc
# Procedure, shortened: as §1
# [16] = target: GlcNAc(b1-2)Gal(b1-3)GalNAc
# Procedure, shortened: as §1
# [17] = target: GlcNAc(b1-2)Gal(b1-3)GlcNAc
# Procedure, shortened: as §1
# [18] = target: GlcNAc(b1-2)Man(a1-3)[GlcNAc(b1-2)Man(a1-6)]Man(b1-4)GlcNAc(b1-4)GlcNAc
# Procedure, shortened: as §1
# [19] = target: GlcNAc(b1-2)Man(a1-3)[GlcNAc(b1-2)Man(a1-6)]Man(b1-4)GlcNAc(b1-4)[Fuc(a1-6)]GlcNAc
# Procedure, shortened: as §1
# [20] = target: GlcNAc(b1-2)Man(a1-3)[GlcNAc(b1-4)][GlcNAc(b1-2)Man(a1-6)]Man(b1-4)GlcNAc(b1-4)GlcNAc
# Procedure, shortened: as §1
# [21] = target: GlcNAc(b1-2)[GlcNAc(b1-4)]Man(a1-3)[GlcNAc(b1-2)Man(a1-6)]Man(b1-4)GlcNAc(b1-4)GlcNAc
# Procedure, shortened: as §1
# [22] = target: GlcNAc(b1-2)[GlcNAc(b1-4)]Man(a1-3)[GlcNAc(b1-4)][GlcNAc(b1-2)Man(a1-6)]Man(b1-4)GlcNAc(b1-4)GlcNAc
# Procedure, shortened: as §1
# [23] = target: GlcNAc(b1-2)[GlcNAc(b1-4)]Man(a1-3)[GlcNAc(b1-4)][GlcNAc(b1-2)[GlcNAc(b1-6)]Man(a1-6)]Man(b1-4)GlcNAc(b1-4)GlcNAc
# Procedure, shortened: as §1
# [24] = target: GlcNAc(b1-2)[GlcNAc(b1-6)]Man(a1-6)[GlcNAc(b1-2)Man(a1-3)]Man(b1-4)GlcNAc(b1-4)GlcNAc
# Procedure, shortened: as §1
# [25] = target: GlcNAc(b1-2)[GlcNAc(b1-6)]Man(a1-6)[GlcNAc(b1-2)Man(a1-3)][GlcNAc(b1-4)]Man(b1-4)GlcNAc(b1-4)GlcNAc
# Procedure, shortened: as §1
# GlcNAc(b1-3)Gal = target: GlcNAc(b1-3)Gal
# Procedure, shortened: as §1
binder,measurement,setting,value
"AAL (Aleuria aurantia), P18891 (protein) PTEFLYTSKIAAISWAATGGRQQRVYFQDLNGKIREAQRGGDNPWTGGSSQNVIGEAKLFSPLAAVTWKSAQGIQIRVYCVNKDNILSEFVYDGSKWITGQLGSVGVKVGSNSKLAALQWGGSESAPPNIRVYYQKSNGSGSSIHEYVWSGKWTAGASFGSTVPGTGIGATAIGPGRLRIYYQATDNKIREHCWDSNSWYVGGFSASASAGVSIAAISWGSTPNIRVYWQKGREELYEAAYGGSWNTPGQIKDASRPTPSLPDTFIAANSSGNIDISVFFQASGVSLQQWQWISGKGWSIGAVVPTGTPAGW",glycan array binding signal (z-score),[1],-0.426
same,glycan array binding signal (z-score),[2],-0.411
same,glycan array binding signal (z-score),GalNAc(b1-3)Gal,-0.426
same,glycan array binding signal (z-score),[3],-0.519
same,glycan array binding signal (z-score),[4],-0.436
same,glycan array binding signal (z-score),[5],-0.441
same,glycan array binding signal (z-score),GalNAc(b1-3)GalNAc,-0.472
same,glycan array binding signal (z-score),GalNAc(b1-4)GlcNAc,-0.511
same,glycan array binding signal (z-score),[6],-0.426
same,glycan array binding signal (z-score),GalNAc(b1-6)GalNAc,-0.442
same,glycan array binding signal (z-score),Glc(a1-4)Glc,-0.507
same,glycan array binding signal (z-score),Glc(a1-6)Glc(a1-6)Glc,-0.512
same,glycan array binding signal (z-score),Glc(b1-4)Glc,-0.525
same,glycan array binding signal (z-score),Glc(b1-6)Glc,-0.519
same,glycan array binding signal (z-score),GlcA(b1-3)Gal,-0.495
same,glycan array binding signal (z-score),GlcA(b1-3)GlcNAc,-0.373
same,glycan array binding signal (z-score),GlcA(b1-6)Gal,-0.526
same,glycan array binding signal (z-score),[7],-0.512
same,glycan array binding signal (z-score),[8],-0.441
same,glycan array binding signal (z-score),[9],-0.432
same,glycan array binding signal (z-score),[10],-0.437
same,glycan array binding signal (z-score),[11],-0.433
same,glycan array binding signal (z-score),[12],-0.324
same,glycan array binding signal (z-score),[13],-0.435
same,glycan array binding signal (z-score),[14],1.64
same,glycan array binding signal (z-score),[15],-0.509
same,glycan array binding signal (z-score),[16],-0.486
same,glycan array binding signal (z-score),[17],-0.62
same,glycan array binding signal (z-score),[18],-0.477
same,glycan array binding signal (z-score),[19],0.427
same,glycan array binding signal (z-score),[20],-0.43
same,glycan array binding signal (z-score),[21],-0.425
same,glycan array binding signal (z-score),[22],-0.431
same,glycan array binding signal (z-score),[23],-0.418
same,glycan array binding signal (z-score),[24],-0.377
same,glycan array binding signal (z-score),[25],-0.444
same,glycan array binding signal (z-score),GlcNAc(b1-3)Gal,-0.501
